Measured values from the supplement of paper PMC8748497.
Where “and” joins values, the source holds several entries; their conditions need not be identical. Equal values may be shown once. This is one part of the list.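 How the source made its calls: active = fold change of at least 2 over DMSO control; inactive = below 2-fold.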 Many values rest on one well or one pass, so single values are uncertain.

System: HEK293 ARE/NRF2-luciferase reporter
Test: ARE/NRF2 luciferase reporter activity, fold change over DMSO control; higher = stronger NRF2/ARE reporter activation
Details: 10 µM; 24 h

ARE/NRF2 luciferase reporter activity, active:
O=c1c(O)c(-c2cc(O)c(O)c(O)c2)oc2cc(O)cc(O)c12 3.11, COc1cc(/C=C/c2ccc(O)cc2)cc(OC)c1 28.4

ARE/NRF2 luciferase reporter activity, inactive:
COc1ccc(/C=C/C(=O)O)cc1OC 0.915, CNC(=O)c1c(I)c(NC(C)=O)c(I)c(C(=O)O)c1I 0.929, CCn1cc(C(=O)O)c(=O)c2cnc(N3CCCC3)nc21 0.912, Cc1c(-c2cnccn2)ssc1=S 1, CC1(C)NC(=O)N(c2ccc([N+](=O)[O-])c(C(F)(F)F)c2)C1=O 1.08, COc1ccc(-c2cc(=O)c3c(O)cc(O[C@@H]4O[C@H](CO[C@@H]5O[C@@H](C)[C@H](O)[C@@H](O)[C@H]5O)[C@@H](O)[C@H](O)[C@H]4O)cc3o2)cc1O 0.768, CC12CCC(CC1)C(C)(C)O2 0.974, CN1CCN2c3ncccc3Cc3ccccc3C2C1 (centres undefined) 0.94, Cc1ccc2c(Cl)cc(Cl)c(O)c2n1 1.04, O=C(Oc1cccc2cccnc12)c1ccccc1 0.813, COC(=O)/C(C)=C\CC12OC(C)(C)C3CC(C=C4C(=O)c5c(c(CCC(C)(C)Cl)c6c(c5OC)C5CC(C)(CCC5=C(C)C)O6)OC431)C2=O (centres undefined) 0.0238, CCN1C(=O)NC(c2ccccc2)C1=O (centres undefined) 0.987, c1ccc2c(Cc3c[nH]c4ccccc34)c[nH]c2c1 0.714, COCCOC(=O)C1=C(C)NC(C)=C(C(=O)OC/C=C/c2ccccc2)C1c1cccc([N+](=O)[O-])c1 (centres undefined) 1.14, OC[C@@H](O)[C@@H](O[C@@H]1O[C@H](CO)[C@H](O)[C@H](O)[C@H]1O)[C@H](O)[C@@H](O)CO 0.958 and 0.888, CN(C)c1cc(NC(=O)CNC(C)(C)C)c(O)c2c1C[C@H]1C[C@H]3[C@H](N(C)C)C(=O)C(C(N)=O)=C(O)[C@@]3(O)C(=O)C1=C2O 0.974, Cc1cnc(NC(=O)C2=C(O)c3ccccc3S(=O)(=O)N2C)s1 1.16, CC(=O)O[C@]1(C(C)=O)CC[C@H]2[C@@H]3C=C(Cl)C4=CC(=O)CC[C@]4(C)[C@H]3CC[C@@]21C 0.805, CCCCCCCCCCCCCCCCOc1nc2ccc(C)cc2c(=O)o1 0.905, COC(=O)Nc1nc2cc(C(=O)c3cccs3)ccc2[nH]1 1.54, N=C(N)NC(=O)Cc1c(Cl)cccc1Cl 0.998, COc1cc2c(cc1OC)C1C(=O)c3c(O)cc4c(c3OC1CO2)C=CC(C)(C)O4 (stereo not drawn) [alpha-TOXICAROL (dl)] 0.808, CC[C@@H](CO)NCCN[C@@H](CC)CO 0.815, Cc1cc2nc3c(=O)[nH]c(=O)nc-3n(C[C@H](O)[C@H](O)[C@H](O)CO)c2cc1C 1.15, C=C1C[C@H]2[C@@H]3C=C(C)C4=CC(=O)CC[C@]4(C)[C@H]3CC[C@]2(C)[C@@]1(OC(C)=O)C(C)=O 1.03, Cc1cnc(C(=O)O)c[n+]1[O-] 0.791, NS(=O)(=O)c1cc2c(cc1Cl)NCNS2(=O)=O 0.99, COc1cc(C(=S)N2CCOCC2)ccc1O 0.961, C[N+](C)(C)CCOP(=O)(O)OP(=O)([O-])OC[C@H]1O[C@@H](n2ccc(N)nc2=O)[C@H](O)[C@@H]1O 0.92, CNCC[C@H](Oc1cccc2ccccc12)c1cccs1 0.729, CN(C(=O)CN(CCO)CC(=O)N(C)C(C)(C)Cc1ccccc1)C(C)(C)Cc1ccccc1 0.968, CC(C)(O)c1ccccc1CC[C@@H](SCC1(CC(=O)O)CC1)c1cccc(/C=C/c2ccc3ccc(Cl)cc3n2)c1 1.04, CCCCCCCCCCCCCCCC(=O)OC[C@H](O)[C@H]1OC(=O)C(O)=C1O 1.5, CCOC(=O)[C@H](CCc1ccccc1)N[C@@H](C)C(=O)N1CCC[C@H]1C(=O)O 1, CC1=C(CC(=O)O)c2cc(F)ccc2/C1=C\c1ccc([S+](C)[O-])cc1 (centres undefined) 1.08, NC(=O)[C@@H]1CCCN1C(=O)[C@H](Cc1c[nH]cn1)NC(=O)[C@@H]1CCC(=O)N1 1.13, N[C@@H](Cc1ccccc1)C(=O)O 0.991
